{
  "source": "PubChem BioAssay AID686978",
  "about": "(National Center for Advancing Translational Sciences (NCATS), 2013)",
  "note": "Out of some 420,000 compounds screened, about 64,000 (15%) were called active. This list was built around the results that the source calls inconclusive (neither active nor inactive); the mix of calls is not that of the screen. Calls come from the whole dose curve; as a rule, active = well fitted inhibition curve with a large enough effect; inconclusive = small, poorly fitted or top-dose-only effect; inactive = flat fitted curve, though single readings scatter. No potency is given beside an inconclusive call; the fits are too rough. % is set by controls: 0 for no effect and ±100 for the full control effect; potency is the fitted concentration of half-maximal effect; tags give direction and shape of the fitted curve.",
  "data": [
    {"assay": "qHTS for Inhibitors of human tyrosyl-DNA phosphodiesterase 1 (TDP1): qHTS in cells in absence of CPT; note: nearly all actives have a fitted effect of over 55% in size", "conditions": "DT40 Tdp1-/- hTDP1 cells, no CPT, ATP luminescence, 48 h; activity change, negative = growth inhibition: at 46.2 µM (top of the series) unless noted", "in_short": "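Stably hTDP1-transfected Tdp1-null chicken DT40 cells were treated with library compounds minus camptothecin and grown for at least 48 hr at 37 °C, after which cellular ATP was quantified by luminescence.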", "values": [
      {"molecule": "Cc1cc(O)c(C(C)C)cc1N=Nc1ccccc1C(=O)O", "Potency": "inconclusive [inhibitor, single point]"},
      {"molecule": "O=C(CCc1ccccc1)Nc1nc2ccc(S(=O)(=O)N3CCOCC3)cc2s1", "Potency": "inconclusive [inhibitor, full curve, poor fit]"},
      {"molecule": "NS(=O)(=O)c1ccc(CCNC(=O)CSc2nc3ccsc3c(=O)n2CCCCCC(=O)O)cc1", "Potency": "inconclusive [inhibitor, single point]"},
      {"molecule": "COCCCC1CCN(C(=O)CCc2nnc(CCCCc3ccccc3)o2)CC1", "Potency": "active: 14.6 µM"},
      {"molecule": "Nc1cccc(Nc2nc(OC(C(F)(F)F)C(F)(F)F)nc(OC(C(F)(F)F)C(F)(F)F)n2)c1", "Potency": "active: 23.1 µM"},
      {"molecule": "CC1=Nc2ccccc2/C1=C(/C)c1c(C)[nH]c2ccccc12", "Potency": "inconclusive [inhibitor, single point]"},
      {"molecule": "COc1ccc(/C=N/NC(=O)c2ccc(O)cc2O)cc1CSc1ccccn1", "Potency": "inconclusive [inhibitor, single point]"},
      {"molecule": "CCOC(=O)c1c(C)[nH]c(-c2csc(N)n2)c1C", "activity change, negative = growth inhibition": "inconclusive: -36% [inhibitor]"},
      {"molecule": "O=C(c1ccc(N2CCN(C3CC(=O)N(Cc4cccs4)C3=O)CC2)cc1)c1cccnc1", "note": "(stereo not given)", "Potency": "inconclusive [inhibitor, single point]"},
      {"molecule": "CC(C)c1cc(CN2CCOCC2)cc(C(C)C)c1O", "Potency": "inactive"},
      {"molecule": "CCN(C(=O)c1ccc2c(=O)n3c(nc2c1)CCCCC3)c1cc(C)ccc1C", "Potency": "inconclusive [inhibitor, single point]"},
      {"molecule": "CNc1ccc(/C=C2\\C=Cc3ccccc32)cc1", "Potency": "inactive"},
      {"molecule": "COc1ccnc(CN(C)C(=O)C2CCC(=O)N(CCN(C)C)C2)c1", "note": "(stereo not given)", "Potency": "inactive"},
      {"molecule": "C/C(CC(=O)NCc1ccc(F)cc1)=N\\NC(N)=S", "Potency": "inactive"},
      {"molecule": "COc1ccc(S(=O)(=O)N(C)C[C@@H]2OCc3cnnn3CCCC(=O)N([C@@H](C)CO)C[C@@H]2C)cc1", "Potency": "inactive"},
      {"molecule": "CCCCC1=CC2=CC(=O)C(C)(OC(=O)CC)C(=O)C2=CN1C1CCCCC1", "note": "(stereo not given)", "Potency": "inconclusive [inhibitor, single point]"},
      {"molecule": "COc1ccc(S(=O)(=O)Nc2ccc3c(c2)C(=O)N([C@H](C)CO)C[C@H](C)[C@@H](CN(C)S(=O)(=O)c2ccccc2)O3)cc1", "Potency": "inconclusive [inhibitor, single point]"},
      {"molecule": "Cc1ccc(-c2[nH]ncc2/C=C(\\C#N)C(=O)NC2CCCCC2)cc1", "Potency": "active: 20.6 µM"},
      {"molecule": "O=C1CCCN2N=C(SCC(=O)Nc3cccc(F)c3)SC2=N1", "Potency": "active: 13 µM"},
      {"molecule": "COc1ccccc1N1CCN(CC2CN3C(=O)N(C)c4ccccc4C3=N2)CC1", "note": "(stereo not given)", "Potency": "inconclusive [inhibitor, partial curve]"},
      {"molecule": "CN(CC1COCCO1)C(=O)c1cnn(-c2ncc3c(n2)-c2ccccc2CCC3)c1C1CC1", "note": "(stereo not given)", "Potency": "inconclusive [inhibitor, single point]"},
      {"molecule": "O=C(COc1coc(CN2CCN(c3ccccc3)CC2)cc1=O)Nc1ccccc1", "Potency": "inactive"},
      {"molecule": "CCC(=O)N1CCc2cc(S(=O)(=O)NC(C(=O)NCCc3ccc(C)cc3)C(C)C)ccc21", "note": "(stereo not given)", "Potency": "inconclusive [inhibitor, partial curve, poor fit]"},
      {"molecule": "Cc1ccc(NS(=O)(=O)c2cc(Br)cnc2N)c(Cl)c1", "Potency": "inactive"},
      {"molecule": "O=C(CN1CCN(c2ccccc2)CC1)Nc1ccc(OCc2ccccc2)cc1", "Potency": "inconclusive [inhibitor, partial curve]"},
      {"molecule": "COc1ccc(NC(=O)c2cncc(Br)c2)c(S(=O)(=O)N2CCOCC2)c1", "Potency": "inconclusive [inhibitor, partial curve]"},
      {"molecule": "CCCOc1cccc(C2c3c(oc4cc(C)c(C)cc4c3=O)C(=O)N2CCCN2CCOCC2)c1", "note": "(stereo not given)", "Potency": "inconclusive [inhibitor, single point]"},
      {"molecule": "CCOC(=O)C1(CCC(C)C)CC(CSc2nc3ccccc3[nH]2)OC1=O", "note": "(stereo not given)", "Potency": "active: 18.4 µM"},
      {"molecule": "COc1cc2c(cc1OC)C(c1ccc([N+](=O)[O-])cc1)NCC2", "note": "(stereo not given)", "Potency": "inconclusive [inhibitor, single point]"},
      {"molecule": "Nc1nc(N)nc(-c2ccc(Oc3ccccc3)cc2)n1", "Potency": "inactive"},
      {"molecule": "Cc1ccccc1N(CC(=O)NCc1ccncc1)S(C)(=O)=O", "Potency": "inactive"},
      {"molecule": "CCc1noc(C)c1C(=O)N1CCCC(N2CCN(c3ccccc3F)CC2)C1", "note": "(stereo not given)", "Potency": "inactive"},
      {"molecule": "CC(OC(=O)c1c[nH]c2ccccc12)C(=O)N1CCCC1", "note": "(stereo not given)", "Potency": "inactive"},
      {"molecule": "Cc1cc(C)c2c(=O)[nH]c(SCc3ccccc3)nc2n1", "Potency": "inactive"},
      {"molecule": "Cc1ccc(NC(=O)c2ccc(CNc3c(N4CCC(C)CC4)c(=O)c3=O)cc2)cc1", "Potency": "inactive"},
      {"molecule": "Cc1ccc(C)c(C(=O)CSc2nc3cc(C(=O)NC4CCCC4)ccc3c(=O)n2CC2CCCO2)c1", "note": "(stereo not given)", "Potency": "active: 8.2 µM"},
      {"molecule": "Cc1ccc(-c2n[nH]c3c2C(c2cccs2)N(c2ccc(Cl)cc2)C3=O)cc1", "note": "(stereo not given)", "Potency": "inconclusive [inhibitor, single point]"},
      {"molecule": "O=S(=O)(c1ccc(=S)[nH]c1)N1CCN(Cc2ccccc2)CC1", "Potency": "inconclusive [inhibitor, partial curve]"},
      {"molecule": "CCC(=O)Nc1nnc(SCC(=O)Nc2ccc(F)cc2)s1", "Potency": "inconclusive [inhibitor, partial curve]"},
      {"molecule": "Clc1ccc(C=NN2CCCCCC2)c(Cl)c1", "Potency": "inconclusive [inhibitor, single point]"},
      {"molecule": "COc1ccc(CCNC(=O)/C=C/c2ccco2)cc1", "Potency": "inconclusive [inhibitor, single point]"},
      {"molecule": "CCN(CC)CCCN1C(=O)CSC1c1ccc([N+](=O)[O-])cc1", "note": "(stereo not given)", "Potency": "inactive"},
      {"molecule": "O=C(COc1ccccc1[N+](=O)[O-])NCC1(N2CCCCC2)CCCCC1", "Potency": "inconclusive [inhibitor, single point]"},
      {"molecule": "CCc1ccc(/C=C2\\C(=N)N3N=C(CC(=O)N4CCCCC4)SC3=NC2=O)cc1", "activity change, negative = growth inhibition": "inconclusive: -14% [inhibitor]"},
      {"molecule": "CCOC(=O)C1CCN(C(=O)c2cccnc2Cl)CC1", "Potency": "inactive"},
      {"molecule": "Cc1ccc2[nH]c(=O)c(C(c3nnnn3Cc3ccccc3)N3CCc4ccccc43)cc2c1", "note": "(stereo not given)", "Potency": "inconclusive [inhibitor, single point]"},
      {"molecule": "c1ccc2c3n(nc2c1)CCCO3", "Potency": "inactive"},
      {"molecule": "COC(=O)Cn1c(Cc2ccccc2)nc2ccccc21", "Potency": "inconclusive [inhibitor, partial curve, poor fit]"},
      {"molecule": "COc1cc2c(cc1OC)CN(CC(=O)Nc1ccc(S(=O)(=O)N3CCCC3)cc1)CC2", "Potency": "inconclusive [inhibitor, single point]"},
      {"molecule": "Cc1cc(N2CCN(c3ccccc3)CC2)n2ncnc2n1", "Potency": "inconclusive [inhibitor, single point]"},
      {"molecule": "CC(C)(C)C(=O)Nc1nnc(SCc2cccc(F)c2)s1", "Potency": "inconclusive [inhibitor, single point]"},
      {"molecule": "CCCCOC(=O)C1=C(C)Nc2ncnn2C1c1cccc(OC)c1OC", "note": "(stereo not given)", "Potency": "inconclusive [inhibitor, single point]"},
      {"molecule": "COc1cccc(C(=O)N(Cc2cc3cc(C)ccc3[nH]c2=O)C(C)C)c1", "Potency": "inconclusive [inhibitor, single point]"},
      {"molecule": "COc1ccc(-n2c(=O)c3c4c(sc3n3cnnc23)CC(C)CC4)cc1", "note": "(stereo not given)", "Potency": "inconclusive [inhibitor, single point]"},
      {"molecule": "CCOc1cc2[nH]c(=O)n(CCCCCC(=O)NC(C)CC)c(=O)c2cc1OCC", "note": "(stereo not given)", "Potency": "inconclusive [inhibitor, single point]"},
      {"molecule": "COC(=O)[C@H](Cc1ccccc1)N(C)S(=O)(=O)c1cccc(S(=O)(=O)N(C)[C@@H](Cc2ccccc2)C(=O)OC)c1", "Potency": "inconclusive [inhibitor, single point]"},
      {"molecule": "O=C1CC(c2ccsc2)Sc2ccccc2N1", "note": "(stereo not given)", "Potency": "inactive"},
      {"molecule": "CC(C)(C)c1csc(NC(=O)c2c(F)c(F)c(F)c(F)c2F)n1", "Potency": "inconclusive [inhibitor, single point]"},
      {"molecule": "CSc1c(C#N)c(N)c(C#N)c2c1COC(C)(C)C2", "Potency": "inactive"},
      {"molecule": "CCN(CCCNC(=O)c1[nH]c(C)c(C(C)=O)c1C)c1cccc(C)c1", "activity change, negative = growth inhibition": "inconclusive: -30.3% [inhibitor]"},
      {"molecule": "Cc1ccc(-c2nnc(N3CCCCC3)c3ccccc23)cc1S(=O)(=O)N(C)C", "Potency": "inconclusive [inhibitor, single point]"},
      {"molecule": "CN(C)S(=O)(=O)c1cccc(C(=O)Nc2cc(Cl)cc(Cl)c2)c1", "Potency": "active: 18.4 µM"},
      {"molecule": "N#CC(c1ccccc1)c1ccc([N+](=O)[O-])cc1", "note": "(stereo not given)", "Potency": "inconclusive [inhibitor, single point]"},
      {"molecule": "COc1ccc(CCNC(=O)CSc2nnc3ccc(-c4cccnc4)nn23)cc1", "Potency": "inactive"},
      {"molecule": "CCn1cc2nc(SCc3cccc(F)c3)n(CCc3ccccc3)c(=O)c2n1", "Potency": "inconclusive [inhibitor, single point]"},
      {"molecule": "O=C(c1ccc(Cl)c(S(=O)(=O)N2CCOCC2)c1)N1CCN(Cc2ccccc2)CC1", "Potency": "inconclusive [inhibitor, single point]"},
      {"molecule": "COc1ccc(Cl)cc1NC(=O)CCCS(=O)(=O)c1nc(-c2ccc(OC)c(OC)c2)cc(C(F)(F)F)n1", "Potency": "active: 2.06 µM"},
      {"molecule": "Cn1c(=O)c2c(SCC(N)=O)nc(CC(C)(C)C)nc2n(C)c1=O", "Potency": "inconclusive [inhibitor, partial curve]"},
      {"molecule": "CCOC(=O)C1(CCCc2ccccc2)CCN(CC(O)CO)CC1", "note": "(stereo not given)", "activity change, negative = growth inhibition": "inconclusive: -31.9% [inhibitor]"},
      {"molecule": "Cc1nnc(NC(=O)CSCc2cc(=O)c3ccc(C)c(C)c3[nH]2)s1", "Potency": "inconclusive [inhibitor, single point]"}
    ]}
  ]
}
